Measured values taken from PubChem BioAssay AID624296 (National Center for Advancing Translational Sciences (NCATS), 2012).
About 9,900 (2.8%) of roughly 350,000 compounds were called active. This list was built around the results that the source calls inconclusive (neither active nor inactive); the mix of calls is not that of the screen. Calls follow the shape of the dose curve; as a rule, active = well fitted activation curve with a large enough effect; inconclusive = small, poorly fitted or top-dose-only effect; inactive = no such curve, though single readings can be large or run the other way. Potencies of inconclusive entries are left out as doubtful fits.

assay: A quantitative high throughput screen for small molecules that induce DNA re-replication in MCF 10a normal breast cells.; also: nearly all actives have a fitted effect of over 50% in size; as to activity, positive = re-replication: % of control where 0% means no effect; details: MCF 10A DNA re-replication, Hoechst nuclear intensity, 48 h; activity, positive = re-replication: at 46.1 µM (top of the series)
Potency is read from the fitted curve at half-maximal effect; tags tell the direction and shape of the fitted curve.

Compound | Potency | activity, positive = re-replication
COc1ccc(Nc2nc(-c3cc4cccc(OC)c4oc3=O)cs2)cc1 | inconclusive [activator, single point] | –
CC1CCc2sc(C(=O)N/N=C/c3ccc(O)cc3)cc2C1 (configuration not stated) | inconclusive [activator, partial curve, poor fit] | –
Cc1cc(C(=O)COC(=O)CCc2nc3ccccc3c(=O)[nH]2)c(C)n1CC1CCCO1 (configuration not stated) | inactive | –
Cc1oc2c(c1C(=O)c1ccc(Cl)cc1)C(=O)C(=O)c1ccccc1-2 | active: 7.31 µM | –
COc1cc(OC)c(OC)cc1CN1CCN(Cc2ccc(SC)cc2)CC1 | inconclusive [activator, partial curve, poor fit] | –
COC(=O)c1ccc(S(=O)(=O)NCc2ccco2)n1C | inconclusive [activator, single point] | –
Cc1cc(C)c(NC(=O)CS(=O)CC(=O)NCCN2CCCCCC2)c(C)c1 (configuration not stated) | inconclusive [activator, partial curve, poor fit] | –
CC(=O)c1cc(C#N)c(SCC(=O)Nc2nccs2)nc1C | inconclusive [activator, single point] | –
O=C(CCCc1ccccc1)Nc1nccs1 | inactive | –
O=C1C2C3C=CC(C4CC34)C2C(=O)N1CCc1ccccc1 (configuration not stated) | inactive | –
CC1(C)Cc2c(C#N)c(SCC(=O)O)nc(N3CCOCC3)c2CO1 | inactive | –
Cc1cccc(C(=O)NC(=S)NNC(=O)c2ccc(Cl)cc2)c1 | inconclusive [activator, single point] | –
Cc1ccc(S(=O)(=O)N2CCCC(C(=O)NCCc3ccccc3)C2)cc1 (configuration not stated) | inconclusive [activator, single point] | –
O=C1NC(=O)C(c2cn(-c3ccccc3)nc2-c2ccc(F)cc2)N1 (configuration not stated) | active: 18.4 µM | –
O=c1c2cc(N3CCOCC3)ccc2[nH]c(=S)n1Cc1ccccc1Cl | active: 23.1 µM | –
COc1cc(-c2noc(C)c2/C=C/c2ccc(C(=O)O)cc2)cc(OC)c1OC | inconclusive [activator, single point] | –
COc1ccc(OCC(=O)Nc2cccc(-c3nc4ccccc4[nH]3)c2)cc1 | inactive | –
COc1ccc(CCN(C)C(=O)CN2C(=O)NC3(CCCc4ccccc43)C2=O)cc1OC (configuration not stated) | inactive | –
COc1ccc2[nH]cc(/C=C(/C#N)S(=O)(=O)c3ccccc3)c2c1 | inconclusive [activator, partial curve] | –
CCCc1ccc(Oc2c(-c3ccc(O)c(C)c3O)n[nH]c2C)cc1 | inconclusive [activator, single point] | –
CCc1cc(=O)oc2c(C)c(OC(C)C(=O)NCCCN3CCOCC3)ccc12 (configuration not stated) | inconclusive [activator, partial curve, poor fit] | –
Nc1nc(-c2ccc(Cl)cc2)nc(-c2ccc(Cl)cc2)n1 | inconclusive [activator, full curve, poor fit] | –
O=C(CC1Nc2ccccc2NC1=O)Nc1ccccc1 (configuration not stated) | active: 6.51 µM | –
CCc1ccc(CNCCNC(=O)c2ccco2)cc1 | active: 18.4 µM | –

Compound | Potency | activity, positive = re-replication
O=C(CSc1ccccc1C(=O)O)NC12CC3CC(CC(C3)C1)C2 | inactive | –
CC(C)CN1CCN(Cc2c[nH]c3ccccc23)CC1CCO (configuration not stated) | inactive | –
COc1cc(NCCC(=O)c2cccs2)c(OC)cc1Cl | active: 20.6 µM | –
c1ccc(Nc2nc(N3CCCCC3)nc(N3CCNCC3)n2)cc1 | inactive | –
CN(C(=O)CSc1cc(Cl)ccc1Cl)C1CCS(=O)(=O)C1 (configuration not stated) | inactive | –
O=C(O)c1ccc(N/N=C/c2ccc(-c3cc(Cl)ccc3Cl)o2)cc1 | active: 2.06 µM | –
Cc1oc(C)c2c(=O)ccc3c(c12)OC(N)=C(C#N)C3c1ccccc1 (configuration not stated) | inconclusive [activator, single point] | –
CCOC(=O)c1c(NC(=O)C(C)S(=O)(=O)c2cn(CC)c3ccccc23)sc2c1CCCC2 (configuration not stated) | inactive | –
CC(CC12CC3CC(CC(C3)C1)C2)NCc1ccccc1O (configuration not stated) | inconclusive [activator, single point] | –
COc1ccccc1C(=O)NCC(=O)N/N=C/c1cc(Br)ccc1OC(=O)/C=C\c1ccco1 | active: 16.4 µM | –
Cc1cc(C)cc(NC2=NC3(CCCCC3)N=C(N)N2)c1 | active: 20.6 µM | –
Cn1c(C(=O)OCC(=O)NCc2ccco2)cc2sccc21 | inactive | –
Cc1ccc(S(=O)(=O)Nc2ccc(OCC(=O)N3CCOCC3)cc2)c(C)c1NS(C)(=O)=O | – | inconclusive: -43.6% [activator]
CCCN=C1NC(=O)C(CC(=O)NCCc2ccc(OC)c(OC)c2)S1 (configuration not stated) | inconclusive [activator, single point] | –
COc1ccc(Br)cc1Cn1nnc(C(=O)Nc2ccc3c(c2)OCCO3)c1N | inconclusive [activator, partial curve, poor fit] | –
Cc1ccc(N/C(N)=N/c2nc(C)cc(C)n2)cc1 | inconclusive [activator, single point] | –
O=C(Nc1nc(-c2cccc([N+](=O)[O-])c2)cs1)C(c1ccccc1)c1ccccc1 | inconclusive [activator, partial curve, poor fit] | –
COc1cc(C(=O)Nc2sc3c(c2C(=O)O)CCC3)cc(OC)c1OC | inconclusive [activator, partial curve, poor fit] | –
CCOC(=O)c1ccc(NC(=O)c2sc3nc(N4CCOCC4)c4c(c3c2N)CCCC4)cc1 | active: 2.06 µM | –
COc1ccc(/C=C/C(O)=C2/C(=O)N(C)C3(C)CC2c2ccccc2O3)cc1 (configuration not stated) | inconclusive [activator, full curve] | –
CCc1ccc(C(C)NC(=S)NC2CCCCC2)cc1 (configuration not stated) | inconclusive [activator, single point] | –
CN1C(C)(C)c2ccccc2OS1(=O)=O | inconclusive [activator, single point] | –
O=C(CSc1c2c(nc3cc(Cl)ccc13)CCCC2)NCCCN1CCOCC1 | active: 23.1 µM | –
